Assay results from the supplement of paper PMC7826260.
This is one part of the list. Each Rep nickase domain was tested in vitro on the same pool of single strands at 3 µM enzyme and 37 °C for 1 h; the strands have 90 letters, of which the middle is given. Uncut reads are compared with the no-enzyme pool on a log2 scale; uncut sequences lie near 0, cut ones below; no hit call is given. Counts are relative to all reads; values above 0 arise when much of the pool is cut.

What was measured:
Assay in all cases: uncleaved DNA left, log2 of reads against the no-enzyme library (log2 ratio); higher = less cleavage (more negative = more Rep cleavage of the k-mer); sequences stand for … in CTCGTCCG…ACCGGAGA
[1] = system: T1, Rep nickase domain of Muscovy duck circovirus
T1 sequence (Rep 1-111, printed without the tag): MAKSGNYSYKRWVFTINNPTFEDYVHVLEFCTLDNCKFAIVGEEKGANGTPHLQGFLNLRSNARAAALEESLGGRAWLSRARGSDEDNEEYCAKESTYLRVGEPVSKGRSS
Method: (§1)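 A pool of 90-nt single-stranded DNAs with seven random bases just before the constant AC of the nick site (name = the seven bases) was cut by 3 µM recombinant His6-SUMO-tagged Rep nickase domain (300 nM DNA, 50 mM HEPES pH 8.0, 50 mM NaCl, 1 mM MnCl2, 1 h, 37 °C, three replicates). Uncut DNA was amplified and sequenced.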

[2] = system: T2, Rep nickase domain of banana bunchy top virus
T2 sequence (Rep 1-94, printed without the tag): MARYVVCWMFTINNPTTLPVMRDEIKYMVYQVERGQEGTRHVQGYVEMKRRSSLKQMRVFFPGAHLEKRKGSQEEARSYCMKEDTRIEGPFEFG
Method: as §1

[3] = system: T3, Rep nickase domain of cabbage leaf curl virus
T3 sequence (Rep 1-116, printed without the tag): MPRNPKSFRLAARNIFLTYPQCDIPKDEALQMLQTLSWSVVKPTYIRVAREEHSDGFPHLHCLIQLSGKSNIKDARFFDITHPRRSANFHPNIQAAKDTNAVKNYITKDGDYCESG
Method: as §1

[4] = system: T4, Rep nickase domain of chickpea chlorotic dwarf virus
T4 sequence (Rep 1-124, printed without the tag): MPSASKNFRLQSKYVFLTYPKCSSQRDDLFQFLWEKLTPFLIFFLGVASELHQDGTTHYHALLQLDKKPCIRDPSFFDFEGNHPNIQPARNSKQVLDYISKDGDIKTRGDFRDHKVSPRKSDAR
Method: as §1

[5] = system: T5, Rep nickase domain of faba bean necrotic yellows virus
T5 sequence (Rep 1-98, printed without the tag): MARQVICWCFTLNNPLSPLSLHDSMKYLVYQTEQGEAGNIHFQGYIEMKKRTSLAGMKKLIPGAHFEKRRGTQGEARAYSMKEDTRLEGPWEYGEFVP
Method: as §1

[6] = system: T6, Rep nickase domain of maize striate mosaic virus
T6 sequence (Rep 1-117, printed without the tag): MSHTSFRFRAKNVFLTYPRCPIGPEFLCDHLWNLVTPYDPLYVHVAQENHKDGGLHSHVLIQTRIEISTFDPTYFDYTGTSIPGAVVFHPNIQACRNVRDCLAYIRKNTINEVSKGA
Method: as §1

[7] = system: T7, Rep nickase domain of porcine circovirus 2
T7 sequence (Rep 2-116, printed without the tag): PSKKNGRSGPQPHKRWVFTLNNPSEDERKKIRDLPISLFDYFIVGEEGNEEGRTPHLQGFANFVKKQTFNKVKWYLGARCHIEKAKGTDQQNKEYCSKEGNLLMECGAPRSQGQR
Method: as §1

[8] = system: T8, Rep nickase domain of tomato yellow leaf curl virus
T8 sequence (Rep 1-136, printed without the tag): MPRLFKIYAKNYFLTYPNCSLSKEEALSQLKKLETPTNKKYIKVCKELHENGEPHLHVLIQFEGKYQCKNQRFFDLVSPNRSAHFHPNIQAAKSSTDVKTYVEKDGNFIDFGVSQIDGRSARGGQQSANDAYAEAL
Method: as §1

[9] = system: T9, Rep nickase domain of wheat dwarf virus
T9 sequence (Rep 1-137, printed without the tag): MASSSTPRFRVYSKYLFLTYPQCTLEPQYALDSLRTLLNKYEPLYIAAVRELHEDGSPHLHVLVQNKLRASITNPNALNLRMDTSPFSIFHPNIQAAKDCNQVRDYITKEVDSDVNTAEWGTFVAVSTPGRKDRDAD
Method: as §1

Sequence	uncleaved DNA left (log2) [1]	uncleaved DNA left (log2) [2]	uncleaved DNA left (log2) [3]	uncleaved DNA left (log2) [4]	uncleaved DNA left (log2) [5]	uncleaved DNA left (log2) [6]	uncleaved DNA left (log2) [7]	uncleaved DNA left (log2) [8]	uncleaved DNA left (log2) [9]
AGTCCAG	0.143	0.136	-0.413	-0.266	0.101	-0.874	0.134	0.204	0.107
CATTAAT	-3.64	-3.47	-0.767	-2.35	-1.04	-1.01	-3.62	0.0195	-0.298
CGTGTAA	0.0848	0.0977	0.239	0.3	0.113	0.912	0.135	0.109	0.171
GCGTTCG	0.0966	0.028	-0.56	-0.473	-0.0537	-0.713	0.124	-0.0113	0.0492
AGTTAGC	0.0916	-0.0247	-0.285	-0.499	-0.0563	-1.19	0.0268	-0.0792	-0.0732
GCCCTCG	-0.0235	-0.0288	-0.732	-0.331	-0.149	-0.677	0.039	-0.102	-0.174
CATAGTA	-0.103	-0.113	-0.128	-1.85	0.0851	-0.948	-0.16	-0.0574	-0.0179
ATATGGC	-0.103	-0.0259	-0.412	-0.634	0.0687	-1.1	0.0755	0.0849	-0.119
AGGCCTC	-0.0191	0.0565	0.54	1.05	-0.111	1.3	-0.0842	0.0614	0.116
GCAATGT	-0.14	-0.0624	-0.0237	0.076	0.0205	-0.353	0.00631	0.0022	-0.153
CAACTAA	0.0435	0.0629	-0.212	-1.54	0.134	-0.668	-0.0853	0.104	0.114
TAGAATC	0.0791	0.00861	0.07	-0.513	-0.11	-0.317	-0.603	0.0605	0.0713
ATGAACT	-0.0396	-0.0141	-0.153	-2.2	0.02	-0.241	-0.475	-0.0949	-0.0349
AGTACGC	-0.0318	-0.0936	-0.0611	-0.297	0.0454	-0.54	0.0214	0.00252	-0.0682
ATCTAGT	-1.39	-0.281	-0.293	-0.657	0.108	-0.893	-3.13	-0.0144	0.0101
CCTGCTC	0.177	5.55e-05	-0.0238	-0.352	-0.0332	-0.739	0.121	-0.0646	0.13
CCGGTTT	-0.133	-0.174	0.202	0.0926	-0.116	1.46	-0.0974	-0.161	-0.228
AATGTGC	-0.0343	-0.0945	-0.699	-0.72	-0.0031	-1.23	-0.0258	-0.012	-0.0622
GTCTGGC	0.141	0.103	0.429	0.881	0.0342	1.2	0.219	0.198	0.0801
CCGACCG	-0.0617	-0.163	-0.631	-0.611	-0.105	-1.03	0.00717	-0.139	-0.295
GCGATTC	-0.142	-0.0541	0.00678	0.377	0.0359	0.203	-0.0426	0.00245	-0.052
GTCTCAT	-0.0283	0.0624	0.319	0.879	0.0129	1.77	-0.0374	0.00217	0.0484
GTAACAA	-0.0189	0.101	0.271	0.916	0.00874	1.66	0.14	0.134	0.129
AGTACCT	-0.0827	-0.152	0.0967	-0.616	-0.187	0.691	-3.31	0.0147	0.036
TAGCACA	0.00615	0.00655	-0.0583	-2.24	-0.045	0.107	-1.01	0.0854	0.045
GGGCTTG	0.113	-0.0448	0.736	1.64	-0.0497	2.1	0.0871	-0.00317	0.13
AGCCCGT	-0.123	-0.0604	0.518	1.25	0.046	1.01	-0.0427	-0.0131	0.068
ACAGCTG	0.0384	0.0359	0.252	1.08	0.139	0.88	0.213	0.0847	0.17
TGATTCT	-3.2	-0.123	-0.195	-2.14	-0.00513	-0.727	-2.76	-0.0763	-0.312
CCCCTAG	-0.157	-0.128	-0.792	-0.695	-0.0322	-1.14	0.0163	0.000607	-0.221
